# Data reported in PubChem BioAssay AID463173 (ICCB-Longwood Screening Facility, Harvard Medical School, 2010).
# Out of some 52,000 compounds screened, about 4,300 (8.3%) were called active. Cut-off read from the data, not from the text of the source: active = survival mostly below about 52% (no sharp cut-off); inactive = mostly above about 56%. The list shows a part of the results.
# Tested on: DeltatarO mutant
# Assay: S. aureus survival, RN4220 and DeltatarO strains – OD600, teichoic acid synthesis inhibitors, primary screen (AID 463173)
# Details: S. aureus RN4220 wild type/DeltatarO growth, OD600, 18 h, stronger effect = lower value, screened at 18.75 µg/mL (by protocol)
row,Compound,survival
1,O=C(CSc1ncc2c(n1)-c1cc(Cl)ccc1N(Cc1ccccc1F)S2(=O)=O)Nc1cccc(C(F)(F)F)c1,inactive: 73%
2,CCOc1ccccc1NC(=O)c1cnc(N2CCOCC2)c2ccccc12,inactive: 80%
3,COc1ccc(OCc2nc3c4c(-c5ccc(OC)cc5)c(-c5ccc(OC)cc5)oc4ncn3n2)cc1,inactive: 70%
4,CNc1oc(-c2ccc(COc3ccc(C)cc3)o2)nc1C#N,inactive: 77%
5,Cc1cccc(CNC(=O)c2sc3ncnc(N(C)C4CCCCC4)c3c2C)c1,active: 46%
6,O=C(C1CC1)N1CCN(c2nc3c(F)cc(F)cc3s2)CC1,inactive: 122%
7,Cc1nn(-c2ccccc2)c2nc(C3CC3)cc(C(=O)NCc3ccccc3Cl)c12,inactive: 55%
8,COc1ccc(C)cc1NC(=O)CCNS(=O)(=O)c1cccc2nonc12,active: 43%
9,O=C(CSc1ncn[nH]1)Nc1ccc(F)cc1,inactive: 72%
10,Cc1cc(Cl)ccc1OCC(=O)N(Cc1ccc(N(C)C)cc1)CC1CCCO1 (centres undefined),inactive: 99%
11,CC(C)Nc1ccc(-c2nc(-c3ccccn3)no2)cc1[N+](=O)[O-],active: 38%
12,CCOc1ccccc1NC(=O)c1ccc2c(Cl)c3c(nc2c1)CCCC3,active: 35%
13,CC(=O)Nc1ccc(NC(=O)CCC(=O)c2ccc(C)cc2)cc1,inactive: 81%
14,CCOc1ccc(-c2nnc(SCC(=O)NCCc3ccccc3)nc2-c2ccc(OCC)cc2)cc1,inactive: 69%
15,COc1cccc(CNc2nc3c(-c4cccc(C)c4)nnn3c3ccccc23)c1,inactive: 96%
16,Cc1cc(NC(=O)C(C)(C)Oc2ccc(Cl)cc2)cc(-c2nc3ncccc3o2)c1O,inactive: 82%
17,Cc1ccc(C(=O)Nc2ccc(C(=O)OCc3cc(=O)n4c5c(sc4n3)CCCC5)cc2)cc1,inactive: 83%
18,Cc1c(-c2ccccc2)n(-c2ccccc2O)c2nc3c(c(=O)n(C)c(=O)n3C)n12,inactive: 94%
19,O=S(=O)(c1ccc(-c2cnc(C3CC3)o2)cc1)N1CCN(c2cccc(Cl)c2)CC1,inactive: 75%
20,COCCn1c(COc2cccc(OC)c2)nnc1SCC(=O)NC1CCCC1,inactive: 82%
21,CCOc1ccccc1C(=O)Nc1cc(-c2ccc(C)cc2)no1,inactive: 71%
22,COc1ccccc1CNC(=O)c1cnc2sc(N3CCOCC3)nn2c1=O,inactive: 107%
23,COc1ccc(N2CCN(C(=O)Cn3nc(Cc4cccnc4)c4ccccc4c3=O)CC2)cc1,inactive: 108%

row,Compound,survival
1,Cc1ccc(Nc2ncnc3c2nc2n3CCCC2)c(Br)c1,inactive: 115%
2,COc1ccc(NC(=O)NCC2CCN(Cc3ccccc3F)CC2)c(OC)c1,inactive: 96%
3,COC(=O)c1cc(S(=O)(=O)N2CCN(c3ccc(F)cc3)CC2)cn1C,active: -5%
4,Cn1cc(C(=O)NCCc2ccc(Cl)cc2)c(=O)c2cc(S(=O)(=O)N3CCCCC3)ccc21,inactive: 65%
5,Cc1ccc2c(c1)c(=O)c(S(=O)(=O)c1ccc(C)c(C)c1)cn2CC(=O)Nc1ccccc1,inactive: 74%
6,O=C(c1ccc2c(c1)N(Cc1ccccc1)C(=O)c1ccccc1S2=O)N1CCC(Cc2ccccc2)CC1 (centres undefined),inactive: 77%
7,CCCOc1ccc(C2=NC(c3ccc(F)cc3)=Nc3ccc(OC)cc3N2)cc1,inactive: 58%
8,CCc1cccc(C)c1NC(=O)C1=C(C)C(=O)OC12CCC(C)CC2 (centres undefined),inactive: 98%
9,COc1ccccc1Nc1ncc(C(=O)Nc2ccc(OC)c(OC)c2)c2ccccc12,active: 43%
10,CCN(C(=O)c1cc2cc(Br)cc(OC)c2oc1=O)c1ccccc1,inactive: 80%
11,O=C(COC(=O)c1cccs1)Nc1ccccc1,inactive: 84%
12,COc1cccc(C2c3c(-c4ccccc4O)n[nH]c3C(=O)N2Cc2cccnc2)c1 (centres undefined),inactive: 84%
13,O=S(=O)(Nc1ccc(-c2ccc(N3CCCC3)nn2)cc1)c1ccc(OC(F)(F)F)cc1,active: -4%
14,O=C(NC1CCCCCC1)c1ccc(CS(=O)c2ccc(Br)cc2)o1 (centres undefined),inactive: 72%
15,O=C(CSCc1ccccc1Cl)N/N=C/c1ccc(O)cc1O,inactive: 72%
16,COc1ccc(-n2ccn(CC(=O)Nc3ccc(C)c(C)c3)c(=O)c2=O)cc1OC,inactive: 81%
17,COc1ccc(-c2cn3c(n2)sc2cc(C(=O)Nc4ccc(F)cc4Cl)ccc23)cc1,inactive: 61%
18,CCOc1cc2[nH]c(=O)n(CCCC(=O)NCc3ccc(OC)cc3)c(=O)c2cc1OCC,inactive: 67%
19,COC(=O)c1c(-c2cccs2)csc1NC(=O)c1cc(OC)c(OC)c(OC)c1,inactive: 64%
20,CC(C)CCNC(=O)c1nn(C)c2c1CSc1ccccc1-2,inactive: 70%
21,CC1CCCN(S(=O)(=O)c2cc(C(=O)NCc3ccccc3Cl)n(C)c2)C1 (centres undefined),inactive: 79%
22,O=C(c1ccc(-n2cnnn2)cc1)N(C1CCCCC1)C1CCCCC1,inactive: 93%
23,Cc1ccc(F)cc1NC(=O)CCSc1nc(-c2ccco2)cc(C(F)(F)F)n1,inactive: 48%

row,Compound,survival
1,C=Cc1ccc(Cn2c(C(=O)O)c(CNCc3ccccc3)c3ccc(OC)cc32)cc1,inactive: 104%
2,Cc1ccc(NC(=O)C(=O)NCC(c2cccnc2)N2CCc3ccccc3C2)cc1 (centres undefined),inactive: 85%
3,CCc1ccc(-n2nc(C)c3c(C(=O)N4CCN(c5cccc(Cl)c5)CC4)cc(C)nc32)cc1,inactive: 99%
4,CCOC(=O)c1ccc(NC(=O)CCc2c(C)nc3c(c(C)nn3C(C)(C)C)c2C)cc1,active: 55%
5,Cc1nn(CC(=O)N2CCN(c3cccc(Cl)c3)CC2)c(=O)c2c1sc1ccccc12,inactive: 77%
6,O=c1sc(Nc2ccccc2)nc2ccccc12,inactive: 80%
7,COc1cc(OC)c(NC(=O)NCc2cccn2Cc2ccccc2)cc1Cl,inactive: 94%
8,CCOc1cc(C(=O)OCc2cc(=O)n3nc(C4CC4)sc3n2)cc(OCC)c1OCC,inactive: 79%
9,CC(C)CCNC(=O)c1ccc(Cn2c(SCC(N)=O)nc3ccccc3c2=O)cc1,active: 46%
10,Nc1ncc(Cc2ccccc2)s1,inactive: 75%
11,CCc1ccccc1NC(=O)Cn1c(=O)n(-c2ccc(C)c(C)c2)c(=O)c2oc3ccccc3c21,inactive: 73%
12,Cc1ccc(NC(=O)CSCc2cnn(-c3ccccc3)c2-n2cccc2)c(Cl)c1,inactive: 63%
13,COc1ccc(CCNc2nc3ccccc3c3nc(-c4cccc(C)c4)nn23)cc1OC,active: 20%
14,COc1cc(Br)ccc1C1C(C(=O)Nc2ccc(C)cc2C)=C(C)Nc2nnnn21 (centres undefined),inactive: 182%
15,Cc1ccc(CCNC(=O)c2cccc(Nc3nc4ccccc4nc3-n3nc(C)cc3C)c2)cc1,inactive: 57%
16,COc1ccc(S(=O)(=O)NCCc2sc(-c3cccc(C)c3)nc2C)cc1,inactive: 96%
17,CCCCCn1c(-c2cccc(C)c2)nc2ccccc21,active: -2%
18,O=C(Nc1ccc2c(c1)OCO2)c1cc(-c2ccc(Cl)cc2)on1,inactive: 69%
19,COc1ccccc1OCC(=O)Nc1c(C(=O)c2ccc(C)cc2)oc2ccccc12,inactive: 82%
20,CN(C)C1(CNC(=O)COc2ccc(C(C)(C)C)cc2)CCCCC1,inactive: 98%
21,CCOC(=O)c1c(C)[nH]c(C)c1S(=O)(=O)N1CCC(C(=O)NCc2ccc(N(C)C)cc2)CC1,inactive: 79%
22,COc1ccc(OC)c(CCNC(=O)C(C)n2c(C)c3cnn(-c4ccccc4)c(=O)c3c2C)c1 (centres undefined),inactive: 82%
23,COc1ccccc1CNS(=O)(=O)c1ccc(N2CCCCS2(=O)=O)cc1,inactive: 77%

row,Compound,survival
1,COc1ccc(Cl)cc1C(=O)Nc1c2c(nn1-c1ccc(Cl)cc1)CS(=O)(=O)C2,inactive: 90%
2,Cc1cc(C)cc(-n2ccnc(NCc3ccc(F)cc3)c2=O)c1,inactive: 96%
3,Cc1ccc(S(=O)(=O)NCCc2nnc3ccc(SCC(=O)Nc4ccc(OC(F)(F)F)cc4)nn23)cc1,inactive: 94%
4,O=C1COc2cc(S(=O)(=O)CCC(=O)N3CCN(c4ccccc4)CC3)c(Cl)cc2N1,inactive: 100%
5,CCOc1ccc(NC(=O)Cn2c(=O)c(CNc3ccccc3)cc3cc4c(cc32)OCCO4)cc1,inactive: 55%
6,CCCc1ccc(-c2ccc(C(=O)Oc3ccc(Br)cc3)cc2)nc1,inactive: 136%
7,COC(=O)c1ccc(CSc2nc3c([nH]c4ccccc43)c(=O)n2-c2cc(C)cc(C)c2)o1,active: 8%
8,CN(C(=O)Cn1ncc2c1-c1ccccc1OC2)c1ccc(Br)cc1,inactive: 66%
9,Cc1ccc2oc(-c3ccc(NC(=O)c4cccc(F)c4)c(C)c3)nc2c1,inactive: 99%
10,CC(=O)N1c2c(cc(Br)cc2S(=O)(=O)NCc2ccccc2Cl)CC1C (centres undefined),active: 46%
11,COc1ccc(NC(=O)c2cc(C)nc3c2c(C)nn3-c2cccc(Cl)c2C)c(OC)c1,inactive: 88%
12,COc1cc(NC(=O)N2CCC(CN3CCc4ccccc4C3)CC2)cc(OC)c1,inactive: 70%
13,Cc1ccc(-c2nnc(Nc3cccc(O)c3)c3ccccc23)cc1S(=O)(=O)N1CCCCC1,inactive: 60%
14,CCOc1ccc(OCC)c(NC(=O)c2csc3c2CCCC3)c1,active: -2%
15,CCOc1ccc(CNC(=O)C2=Cc3cc(Br)ccc3OC2)cc1OC,inactive: 71%
16,COc1ccc(Cl)cc1NC(=O)CSc1nc(=O)[nH]c2c1CCCC2,inactive: 76%
17,COc1ccccc1NC(=O)c1oc2ccccc2c1NC(=O)COc1ccccc1OC,inactive: 87%
18,CCOc1ccc(NC(=O)Cn2cc(C(=O)c3ccccc3)c(=O)c3cc4c(cc32)OCO4)cc1,inactive: 72%
19,Cc1ccc(Cn2c(=O)n(-c3ccc(C)c(C)c3)c(=O)c3c(C)c(C)sc32)cc1,inactive: 71%
20,COc1ccc(OCC2c3cc(OC)c(OC)cc3CCN2C(=O)COc2ccc(Cl)cc2Cl)cc1 (centres undefined),inactive: 85%
